From PMC4336329 (PLoS ONE, 2015)
The whole screen tested about 310,000 compounds, of which about 2,200 (0.71%) showed an effect of 50% or more. Effects have a minus sign here. This is one part of the list.

Biological target: human ether-à-go-go-related gene (hERG) potassium channel (human, UniProt Q12809)
Assay: primary screen, population patch clamp on CHO cells stably expressing hERG

Sequence of human ether-à-go-go-related gene (hERG) potassium channel (Q12809 whole entry, looked up): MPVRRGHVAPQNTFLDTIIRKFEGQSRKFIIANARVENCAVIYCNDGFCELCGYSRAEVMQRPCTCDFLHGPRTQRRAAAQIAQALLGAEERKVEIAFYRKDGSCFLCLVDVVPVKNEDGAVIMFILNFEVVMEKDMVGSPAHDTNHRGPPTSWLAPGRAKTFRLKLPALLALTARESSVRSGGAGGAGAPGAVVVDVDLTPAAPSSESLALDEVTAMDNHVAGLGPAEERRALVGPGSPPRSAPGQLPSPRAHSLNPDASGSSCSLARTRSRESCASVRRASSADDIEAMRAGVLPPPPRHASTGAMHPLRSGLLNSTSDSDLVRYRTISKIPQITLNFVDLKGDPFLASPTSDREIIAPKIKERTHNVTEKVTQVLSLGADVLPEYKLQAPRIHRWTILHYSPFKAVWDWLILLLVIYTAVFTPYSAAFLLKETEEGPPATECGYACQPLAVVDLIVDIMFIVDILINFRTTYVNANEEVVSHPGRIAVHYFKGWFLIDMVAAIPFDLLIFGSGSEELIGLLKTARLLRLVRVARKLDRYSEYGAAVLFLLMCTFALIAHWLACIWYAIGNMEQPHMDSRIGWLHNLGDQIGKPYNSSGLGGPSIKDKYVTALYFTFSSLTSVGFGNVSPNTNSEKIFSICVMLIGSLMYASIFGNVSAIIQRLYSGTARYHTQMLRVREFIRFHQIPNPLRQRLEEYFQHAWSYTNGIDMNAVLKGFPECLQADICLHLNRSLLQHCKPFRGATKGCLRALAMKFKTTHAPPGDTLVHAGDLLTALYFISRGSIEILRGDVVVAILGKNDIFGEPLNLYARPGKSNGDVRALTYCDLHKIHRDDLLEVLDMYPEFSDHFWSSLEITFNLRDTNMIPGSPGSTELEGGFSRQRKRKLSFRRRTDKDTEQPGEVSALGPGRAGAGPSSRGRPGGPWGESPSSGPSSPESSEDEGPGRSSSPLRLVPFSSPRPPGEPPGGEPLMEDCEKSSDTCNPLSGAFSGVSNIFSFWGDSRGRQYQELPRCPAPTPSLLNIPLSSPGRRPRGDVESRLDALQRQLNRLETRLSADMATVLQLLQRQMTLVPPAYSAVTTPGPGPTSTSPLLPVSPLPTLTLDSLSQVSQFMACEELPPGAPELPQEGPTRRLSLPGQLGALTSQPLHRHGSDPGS

Structure (SMILES)	hERG current change (%, negative = inhibition) at 1uM [%]
Cc1nn(-c2ccccc2)c(OC(=O)c2cccs2)c1S(=O)(=O)c1ccccc1	4.14
CC(C)c1ccc(/C=C2\SC(=O)N(CC(=O)NCCCn3ccnc3)C2=O)cc1	11.4
COc1ccc(Cl)cc1NC(=O)N1CCN(CCc2ccccc2)CC1	-6.36
COc1cccc2cc(C(=O)CS(=O)(=O)c3ccc(C)cc3)c(=O)oc12	12.1
O=C(O)CC/C(=N/NC(=O)c1cn(-c2ccccc2)nc1-c1ccccc1)C(=O)O	15.7
Cc1ccc(C2=NN(C(=O)C3CCCO3)C(c3ccco3)C2)cc1 (centres unmarked)	10.7
COc1cc(/C=C2/SC(=S)NC2=O)ccc1OS(=O)(=O)c1ccc(C)cc1	7.2
CCCCN1C2CCCC1CC(NC(=O)c1ccc(OC)c(OC)c1)C2 (centres unmarked)	-17.8
Cn1c(=O)[nH]c(=O)c2c1nc(N1CCN(Cc3ccccc3)CC1)n2CCCc1ccccc1	-22
CC(=O)Nc1ccc(Nc2nc(-c3c(C)nc4ccccn34)cs2)cc1	17.9
COC(=O)c1ccc(NC(=S)NN2CCCCC2c2cccnc2)cc1 (centres unmarked)	-0.525
CCN(CC)CCN1C(=O)Cn2c(C)c(C)c3cccc1c32.Cl	-12.2
CCOc1ccc(S(=O)(=O)Nc2cc(F)ccc2F)c2cccnc12	13.4
Cc1ccc(CCNC(=O)C2CCCN(C(=O)N(C)C)C2)cc1 (centres unmarked)	8.32
CCOc1ccc(Nc2nc(Cc3nnc(SCC(=O)O)o3)cs2)cc1	20
Cc1cccc2nc(CSc3nc4[nH]ncc4c(=O)n3-c3cccc(Cl)c3)cc(=O)n12	5.66
CN(C)c1ccc(/C=N/O)cc1	15.2
Nc1nnc(-c2ccccc2F)s1	10.7
CCCNC(=O)Cn1cnc2sc(C(=O)Nc3cc(OC)c(OC)c(OC)c3)c(C)c2c1=O	7.4

Structure (SMILES)	hERG current change (%, negative = inhibition) at 1uM [%]
O=C(NCCN1CCOCC1)C1(C(F)(F)F)C/C(=C\Cc2ccccc2)CCCO1 (centres unmarked)	8.67
Cc1ccc(C(=O)NNC(=O)CCOc2cccc(C)c2)cc1	7.38
Cc1ccccc1NC(=O)C1C2CCCC1C2c1ccccc1 (centres unmarked)	1.65
CCSC1=C(C#N)C(c2ccccc2C)CC(=O)N1 (centres unmarked)	7.34
Cc1c(NC(=O)C(C#N)=C2CCCCC2)c(=O)n(-c2ccccc2)n1C	11.4
CCOc1ccc(NC(=O)CN(C)C(=O)CSCc2c(C)noc2C)cc1OCC	7.53
C=CCn1c(C)nnc1SCC(=O)c1[nH]c(C)c(C(C)=O)c1C	9.55
Fc1cc2nc(-c3ccncc3)[nH]c2cc1F	-8.72
CCOC(=O)c1nnn(CC(=O)N2N=C(c3cc(C)ccc3C)CC2c2ccc(OC)cc2)c1C(=O)OCC (centres unmarked)	7.92
CNC(=O)CSc1nnc(-c2ccco2)n1-c1ccccc1OC	3.78
CC1(C)Cc2c(C#N)c(N)n(-c3ccccc3)c(=O)c2CO1	12.7
COc1c2ccoc2nc2c(OC)c(OC[C@@H](O)C(C)(C)O)ccc12	11.6
Cc1cccc(-n2cnc(C(=O)O)c2)n1	14.7
Oc1ccc(C23CC4CC(CC(C4)C2)C3)cc1O	17.2
Cc1cccc(NC(=O)C2CCCN(c3ncnc4c3nc3n4CCCCC3)C2)n1 (centres unmarked)	-11.8
O=S(=O)(CCN1C=CC(C(F)(F)F)=NCC1)c1ccc(F)cc1	4.38
CN(c1ccc2nc3ccccc3c(=O)n2n1)C1CCCCC1	4.9
COCCN(C(=O)COC(=O)c1cc(C)n(-c2ccccc2)c1C)c1c(N)n(Cc2ccccc2)c(=O)[nH]c1=O	-3.37
CCNC(=S)NC(=NCc1cccnc1)Nc1nc(C)cc(C)n1	19.4

Structure (SMILES)	hERG current change (%, negative = inhibition) at 1uM [%]
NNC(=O)[C@H](Cc1ccccc1)NC(=O)Nc1ccc2c(c1)OCCO2	8.85
CCOC(=O)c1[nH]ncc1CN1CCN(Cc2ccccc2)C(CCO)C1 (centres unmarked)	20.5
COCc1nc2ccccc2n1CCOc1ccccc1OC	8.78
COCC(=O)NC1CCCCCC1	11.1
Cc1nn(Cc2cccc(C(=O)O)c2)c(C)c1[N+](=O)[O-]	7.02
Cc1cccc(C)c1-n1c(C)cc(/C=N/NC(=O)CSc2ncccn2)c1C	13.3
COc1ccc(/C=C/C(=O)O)cc1S(=O)(=O)N1CCC(C)CC1	26.1
Cc1ccc(NC(=O)CN2C(=O)NC3(CCCc4ccccc43)C2=O)cc1S(=O)(=O)N1CCOCC1 (centres unmarked)	10.2
CC(C)CC(=O)NC(Nc1ccccc1F)C(Cl)(Cl)Cl (centres unmarked)	10.1
Cl.O=C(C1CCCO1)N1CCC(c2nc3ccccc3[nH]2)CC1 (centres unmarked)	3.35
Cc1c(CCOC(=O)CC23CC4CC(CC(C)(C4)C2)C3)sc[n+]1CC(=O)c1ccccc1.[Br-]	-5.09
Cc1nc2scc(-c3ccc(Cl)cc3)c2c(=O)n1N	9.12
Cn1c(=O)c2c(ncn2CC(=O)OCC(=O)Nc2ccccc2Cl)n(C)c1=O	16.4
COc1cc2c(cc1OC)CN(C(=O)c1cc(=O)c3ccccc3o1)CC2	4
CCN(CC(=O)NCc1ccc(Cl)cc1)C(=O)c1cccc(S(=O)(=O)Nc2ccc(OC)cc2)c1	12.7
Nc1ccc(S(=O)(=O)NCC(=O)OC2CCOC2=O)cc1[N+](=O)[O-] (centres unmarked)	10.8
CSCCOC(=O)C1=C(C)NC(=O)NC1c1ccc2c(c1)OCO2 (centres unmarked)	12.2
CC(C)C(C(=O)NCC1CCCO1)N(C(=O)CNS(=O)(=O)c1ccccc1)C1CCCCC1 (centres unmarked)	14.1
